Holding throughout (assay): BLI, antigen immobilised, KD apparent
For orientation: Biolayer interferometry detects binding as a change in optical thickness at a sensor tip.

In experiment [1] the target is T1, Human ALPP (leucine zipper) (human).
T1 construct: Whole entry: ALPP fused with a cysteine stabilised leucine zipper and His tag; also called hALPP
T1 chain: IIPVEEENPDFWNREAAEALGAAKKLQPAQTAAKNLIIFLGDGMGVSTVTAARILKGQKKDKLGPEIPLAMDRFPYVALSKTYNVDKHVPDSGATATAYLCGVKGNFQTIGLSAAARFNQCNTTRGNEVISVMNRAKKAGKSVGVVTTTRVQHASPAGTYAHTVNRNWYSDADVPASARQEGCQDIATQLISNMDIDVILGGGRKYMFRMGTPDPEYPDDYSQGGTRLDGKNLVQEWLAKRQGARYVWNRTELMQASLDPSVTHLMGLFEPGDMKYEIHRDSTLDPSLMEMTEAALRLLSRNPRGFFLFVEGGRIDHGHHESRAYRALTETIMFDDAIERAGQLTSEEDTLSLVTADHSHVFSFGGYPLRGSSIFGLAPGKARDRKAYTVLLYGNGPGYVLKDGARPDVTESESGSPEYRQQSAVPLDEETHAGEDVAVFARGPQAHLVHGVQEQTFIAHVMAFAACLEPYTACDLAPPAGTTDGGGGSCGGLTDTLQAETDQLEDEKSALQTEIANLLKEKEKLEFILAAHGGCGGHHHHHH
As for the experimental part: (§1) Binding kinetics were determined using the Biolayer Interferometry (BLI) Octet K2 or R4 system (Sartorius). […] For KD apparent measurements, the ALPP proteins were immobilised in sodium acetate pH5 buffer to AR2G sensors using amine coupling. To measure 1:1 interactions, AHC biosensors were used to immobilise Fc-fused proteins. All assays were conducted in HBS-EP with a plate temperature of 25° C. Ka (M⁻¹s⁻¹), Kd (s⁻¹) and KD (nM) values were determined using Octet Data Analysis High Throughput software (Sartorius) for Biolayer Interferometry.

Experiment [2] concerns the target T2, Human ALPPL2 (leucine zipper) (human).
T2 construct: Whole entry: fused with a cysteine stabilised leucine zipper and His tag; also called hALPPL2
T2 chain: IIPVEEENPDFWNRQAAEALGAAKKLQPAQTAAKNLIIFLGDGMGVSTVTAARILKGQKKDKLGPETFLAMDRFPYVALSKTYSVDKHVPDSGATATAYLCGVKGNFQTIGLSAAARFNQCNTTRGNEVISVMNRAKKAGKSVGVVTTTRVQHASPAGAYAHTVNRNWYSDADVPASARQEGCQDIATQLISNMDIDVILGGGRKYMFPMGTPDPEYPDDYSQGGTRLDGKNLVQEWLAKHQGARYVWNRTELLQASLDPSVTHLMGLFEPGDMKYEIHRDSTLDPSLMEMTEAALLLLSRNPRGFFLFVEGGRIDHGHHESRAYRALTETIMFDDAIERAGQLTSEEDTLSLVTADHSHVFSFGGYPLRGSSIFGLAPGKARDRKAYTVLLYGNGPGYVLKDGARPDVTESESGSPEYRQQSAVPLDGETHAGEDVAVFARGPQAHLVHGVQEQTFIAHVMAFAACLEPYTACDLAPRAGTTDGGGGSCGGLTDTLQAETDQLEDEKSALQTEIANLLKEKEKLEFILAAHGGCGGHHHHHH
As for the experimental part: as §1

The target of experiment [3] is T3, Rhesus monkey ALPP (leucine zipper) (rhesus monkey).
T3 construct: Whole entry: cysteine-stabilised leucine zipper fusion; also called rmALPP; NCBI #XP_028687061
T3 chain: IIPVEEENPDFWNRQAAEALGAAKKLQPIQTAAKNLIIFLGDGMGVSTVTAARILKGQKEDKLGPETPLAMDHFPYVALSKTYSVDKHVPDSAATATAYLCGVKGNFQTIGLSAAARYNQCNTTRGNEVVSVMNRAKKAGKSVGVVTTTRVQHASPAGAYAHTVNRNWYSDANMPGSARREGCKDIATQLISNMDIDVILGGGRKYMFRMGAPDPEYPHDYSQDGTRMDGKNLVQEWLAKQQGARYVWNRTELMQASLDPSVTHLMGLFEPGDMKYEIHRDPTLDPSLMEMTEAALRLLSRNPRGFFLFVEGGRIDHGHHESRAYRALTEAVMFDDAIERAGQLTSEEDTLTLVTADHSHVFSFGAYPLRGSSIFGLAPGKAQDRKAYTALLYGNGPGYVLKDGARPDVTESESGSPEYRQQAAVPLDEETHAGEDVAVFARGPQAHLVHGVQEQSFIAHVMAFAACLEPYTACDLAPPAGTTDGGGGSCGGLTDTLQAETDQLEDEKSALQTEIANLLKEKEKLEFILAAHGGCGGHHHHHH
The method, then:
as §1
To assess cross-species reactivity of the ALPP/ALPPL2 targeting VHH-hFc fusions, BLI was conducted using mouse ALPPL2 (NCBI #NP_031459), rhesus monkey ALPP (NCBI #XP_028687061) and cynomolgus monkey ALPP (NCBI #XP_045223825). […] BLI was conducted as described above.

B1: D04-hFc (S239C) (Fc fusion)
chain: QVQLVESGGGLVQPGGSLRLSCAASESTFSINVMGWYRQAPGKQRELVATITSGDITNYADSVKGRFTISRDNAENTVYLRTNSLKPEDTAVYYCNARGEYHSGNEYDYWGQGTQVTVSSGGGGSGGGGSGGGGS[human IgG1 Fc with changes not spelt out]
notes: Built from parts; also called #371
One may read the koff as the first-order rate constant of dissociation. As usually defined, the kon is a measure of how fast the partners come together. Turning to B1, in experiment [1], the Kd came to 21.4 pM, the koff came out at 6.65e-06 s⁻¹ and the on-rate (kon) was determined as 311000 M⁻¹ s⁻¹. In addition, in experiment [2], the Kd is 2300 pM, the off-rate (koff) was determined as 0.000239 s⁻¹ and the association rate constant (kon) came out at 104000 M⁻¹ s⁻¹. Besides, in experiment [3], the Kd is below 10 pM, the koff was below 1e-07 s⁻¹ and the kon was found to be 672000 M⁻¹ s⁻¹.

B2: E06-hFc (S239C) (Fc fusion)
chain: QVHLVESGGGLVQAGGSLRLSCAASRRSFSEYAMGWFRQAPGKEREFVAAIGWSGVIEYADSVKGRFTISRDNAKDTVYLQMNSLKPEDTAVYYCAAGLGIRVVSQTPAYWGQGTQVTVSSGGGGSGGGGSGGGGS[human IgG1 Fc with changes not spelt out]
notes: [G4S]3 linker
On to B2, for which, in experiment [1], the Kd was 38 pM, the koff is 1.22e-05 s⁻¹ and the kon was determined as 321000 M⁻¹ s⁻¹. In experiment [2], the Kd was below 10 pM, the koff is below 1e-07 s⁻¹ and the kon worked out at 688000 M⁻¹ s⁻¹. Also, in experiment [3], the Kd was below 10 pM, the koff was below 1e-07 s⁻¹ and the association rate constant (kon) was determined as 752000 M⁻¹ s⁻¹.

B3: A06-hFc (S239C) (Fc fusion)
chain: QVHLVESGGGLVQAGGSLRLSCAASGRTFLSMGWFRQAPGKEREFVAAISWTGGSTGYADSVKGRFTISRESDKETMYLQMNSLKPEDTAVYYCAARGDVYYGGDDATRYKYWGQGTQVTVSSGGGGSGGGGSGGGGS[human IgG1 Fc with changes not spelt out]
notes: [G4S]3 linker; also called #340
For B3, in experiment [1], the Kd is below 10 pM, the koff stood at 1.8e-07 s⁻¹ and the kon amounted to 203000 M⁻¹ s⁻¹. In addition, in experiment [2], the Kd came to 584 pM, the dissociation rate constant (koff) worked out at 0.000215 s⁻¹ and the kon is 368000 M⁻¹ s⁻¹. Moreover, in experiment [3], the Kd is below 10 pM, the off-rate constant (koff) is below 1e-07 s⁻¹ and the on-rate constant (kon) amounted to 228000 M⁻¹ s⁻¹.

B4: B01-hFc (S239C) (Fc fusion)
chain: QVQLVESGGGLVQAGGSLRLSCEVTRSPMPIDTMAWYRQAPGRQRELVAIISRSGSTNYADSVKGRFTISRNDTKSTMYKSTMYLKMNTLELEDTGVYYCNAVGLWNGAEYWGQGTQVTVSSGGGGSGGGGSGGGGS[human IgG1 Fc with changes not spelt out]
notes: Built from parts; also called #341
With B4, in experiment [1], the Kd is below 10 pM, the koff is below 1e-07 s⁻¹ and the on-rate (kon) stood at 140000 M⁻¹ s⁻¹. In addition, in experiment [2], the Kd is 201 pM, the koff was determined as 6.18e-05 s⁻¹ and the kon stood at 308000 M⁻¹ s⁻¹. Besides, in experiment [3], the Kd is 25 pM, the koff amounted to 4.81e-06 s⁻¹ and the on-rate (kon) turned out to be 194000 M⁻¹ s⁻¹.

B5: D10-hFc (S239C) (Fc fusion)
chain: QVQLVESGGGLVQPGGSLRLSCAASGSIFSVNTMGWYRQAPGKQRDLVAVATSGGTIHYADSVKGRFTISRDNAKNTVYLQMNSLKPEDTAVYYCNLVVPYGMIAGDHDYWGQGTKVTVSSGGGGSGGGGSGGGGS[human IgG1 Fc with changes not spelt out]
notes: [G4S]3 linker
As to B5, in experiment [1], the Kd is 67.7 pM, the off-rate (koff) came out at 1.08e-05 s⁻¹ and the kon was 160000 M⁻¹ s⁻¹. For the same molecule, in experiment [2], the Kd is 9940 pM, the dissociation rate constant (koff) came to 0.00186 s⁻¹ and the kon came out at 187000 M⁻¹ s⁻¹. Moreover, in experiment [3], the Kd is below 10 pM, the dissociation rate constant (koff) was below 1e-07 s⁻¹ and the association rate constant (kon) was 126000 M⁻¹ s⁻¹.

B6: E10-hFc (S239C) (Fc fusion)
chain: QVQLVESGGGLVQAGGSLRLSCAVSGRALSDYNIGWFRQAPGKEREFVARKTWDGSSTRYDDSVKGRFTVSIEDAKNTAYLQMSSLKTEDTAVYYCAAGRYSRARGWEYDYWGQGTQVTVSSGGGGSGGGGSGGGGS[human IgG1 Fc with changes not spelt out]
notes: [G4S]3 linker; also called #435
Take B6: in experiment [1], the Kd came out at 12 pM, the dissociation rate constant (koff) worked out at 4.69e-06 s⁻¹ and the association rate constant (kon) was 382000 M⁻¹ s⁻¹. Besides, in experiment [2], the Kd is below 10 pM, the off-rate constant (koff) is below 1e-07 s⁻¹ and the kon was determined as 288000 M⁻¹ s⁻¹. In experiment [3], the koff is below 1e-07 s⁻¹ and the on-rate (kon) worked out at 544000 M⁻¹ s⁻¹.

B7: F05-hFc (S239C) (Fc fusion)
chain: QVQLVESGGGLVQAGGSLRLSCAASGRAFGDYNIGWFRQAPGKEREFVARRTWDGSSTRYDDSVKGRFTVSIDNAKNTAYLQMNSLKTEDTAVYYCAAGRYSRVRGWEYDYWGQGTQVTVSSGGGGSGGGGSGGGGS[human IgG1 Fc with changes not spelt out]
notes: [G4S]3 linker; also called #436
Take B7: in experiment [1], the Kd came out at 63 pM, the dissociation rate constant (koff) worked out at 2.06e-05 s⁻¹ and the kon is 330000 M⁻¹ s⁻¹. Moreover, in experiment [2], the Kd was 30 pM, the koff amounted to 1.06e-05 s⁻¹ and the on-rate (kon) turned out to be 350000 M⁻¹ s⁻¹.

B8: C07-hFc (S239C) (Fc fusion)
chain: QVQLVESGGGLVQAGESLRLACAASGTIFSGNAVGWYRQAPEKQREWVSSITDYGDTDYAEAVKGRFTISRDNAKNTVYLQMNSLKPEDTAVYYCYVYQRGESEEYWGQGTQVTVSSGGGGSGGGGSGGGGS[human IgG1 Fc with changes not spelt out]
notes: Built from parts
Regarding B8, in experiment [1], the Kd is below 10 pM, the koff is below 1e-07 s⁻¹ and the kon turned out to be 151000 M⁻¹ s⁻¹. For the same molecule, in experiment [2], the Kd stood at 449 pM, the off-rate (koff) is 0.000114 s⁻¹ and the kon is 253000 M⁻¹ s⁻¹. In experiment [3], the Kd was 721 pM, the off-rate constant (koff) came to 0.000481 s⁻¹ and the kon was 667000 M⁻¹ s⁻¹.
